In the data set the test system is ATP. Nature of the data set: switch fluorescence ratio, 500 uM ATP over buffer (Cy3 cluster intensity, sum of 5 cycles each) (fold (ratio)); higher = stronger signal-on switching upon ATP binding; sequences stand for … in TCGTCGGCAGCGTCAGATGTGTATAAGAGACAGTTTTTTTTTTTTTTTTTTTTTTTTT…TC. As to conditions: aptamer strand: ATP DNA aptamer (quencher-CACCTGGGGGAGTATTGCGGAGGAAGG + anchor), 100 nM annealed; ATP concentration: 500 uM; one replicate. In short, it runs like this:
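Clusters with intensities outside 100-1000 RFU were excluded. The remaining Cy3-labelled switching-strand clusters on a modified Illumina MiSeq flow-cell had been annealed to 100 nM quencher-labelled ATP aptamer and imaged in selection buffer, then after 15 min with 500 uM ATP at 22 °C, for five cycles separated by NaOH stripping and re-annealing. The fluorescence ratio, averaged per switch-domain sequence, is each cluster's summed target-cycle Cy3 intensity over its summed buffer-cycle Cy3 intensity.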

Values marked as one replicate rest on one cluster of the flow cell; about a third of the high ones do not repeat.
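Further: ATP exposure 15 min at 22 °C before imaging.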

Take CCGTAACGAT: the switch fluorescence ratio was 2.69.

Consider CGTTGAGGGC, for which the switch fluorescence ratio was 1.07.

On to GTTTAACGAG, for which the switch fluorescence ratio is 0.951.

Turning to TCATCGTGCA, the switch fluorescence ratio was found to be 1.1.

Take CAAATTGGTA: the switch fluorescence ratio was found to be 0.996.

As for GTGGGACCGG, the switch fluorescence ratio was 0.999.

Consider GCATTCGTAG, for which the switch fluorescence ratio was determined as 0.991.

As to TTATGACTTT, the switch fluorescence ratio came to 1.01.

For the sequence AAGCGCGTTA, the switch fluorescence ratio was 0.995.

As for ACCAACCCGA, the switch fluorescence ratio came out at 1.18.

Consider CAATATTGGC, for which the switch fluorescence ratio came to 1.05.

On to CGAGGGCTTG, for which the switch fluorescence ratio worked out at 1.03.

For the sequence CCGAATACAT, the switch fluorescence ratio came out at 1.24.

On to GTTTGAAATC, for which the switch fluorescence ratio is 0.962.

As for AACGGATCTC, the switch fluorescence ratio was determined as 0.998.

In the case of CAGGGTATAA, the switch fluorescence ratio stood at 1.02.

Regarding ATATTTATGG, the switch fluorescence ratio worked out at 0.995.

For TTAGGTAAGC, the switch fluorescence ratio came to 0.989.

For GCGGAATCGT, the switch fluorescence ratio was determined as 1.04.

GCGCTAACTT: the switch fluorescence ratio was 1.03.

As for CTCGCATGCG, the switch fluorescence ratio turned out to be 1.01.

With GGTTTTCCGA, the switch fluorescence ratio came out at 1.05.

Consider AATAACGGCC, for which the switch fluorescence ratio was found to be 1.05.

GGTGGACTGG: the switch fluorescence ratio came to 0.966.

In the case of GACGGCTAAA, the switch fluorescence ratio turned out to be 1.05.

For the sequence TCCCACTTTC, the switch fluorescence ratio amounted to 1.12.

For the sequence TTGATGCGAG, the switch fluorescence ratio stood at 0.974.

Regarding ACATCCAGGG, the switch fluorescence ratio came out at 1.67.

CGAGATTGGG: the switch fluorescence ratio was determined as 1.

With ATGAGAGGCG, the switch fluorescence ratio turned out to be 0.935.

For the sequence AGAAGTGCAT, the switch fluorescence ratio was 1.

Turning to GATCGCGTAG, the switch fluorescence ratio is 1.06.

Take GCCTCTTGAA: the switch fluorescence ratio worked out at 1.02.

Consider CCCACTCTTA, for which the switch fluorescence ratio came out at 1.03.

As for AGCAGACTCT, the switch fluorescence ratio was found to be 1.74.

With ACTGCTCGAT, the switch fluorescence ratio came out at 1.09.

Regarding AGCTGCATC, the switch fluorescence ratio came to 1.09.

Regarding AATAATTATT, the switch fluorescence ratio turned out to be 1.01.

Consider GCAATGCTTC, for which the switch fluorescence ratio was found to be 5.01.

TTCAAACAGT: the switch fluorescence ratio was 1.02.

For the sequence TGAAGAGGAC, the switch fluorescence ratio came out at 0.986.

Consider TCACACACTT, for which the switch fluorescence ratio was determined as 1.35.

As to AACTTTGAC, the switch fluorescence ratio came to 1.06.

As for GATGGAGG, the switch fluorescence ratio is 0.984.

On to ACCGCGACCC, for which the switch fluorescence ratio worked out at 1.55.

TAGTGAAAGG: the switch fluorescence ratio is 0.993.

Turning to ACTATGATGC, the switch fluorescence ratio came to 1.04.

With TTACCAGTTC, the switch fluorescence ratio was determined as 0.992.

As to CTGTACGGAC, the switch fluorescence ratio came out at 1.34.

Consider TGCTTTAACA, for which the switch fluorescence ratio was 1.02.

As for CGGCCAGTAC, the switch fluorescence ratio stood at 3.6.

On to AAAGCTTGGG, for which the switch fluorescence ratio worked out at 1.01.

Regarding AACGAAGTGT, the switch fluorescence ratio turned out to be 1.03.

For the sequence TTAGGGTTAA, the switch fluorescence ratio was determined as 1.01.

GGCGAAGGCT: the switch fluorescence ratio came to 1.02.

As to GAAGTAGGCT, the switch fluorescence ratio worked out at 0.976.

On to GTGGTCTTTA, for which the switch fluorescence ratio was 0.966.

Regarding AGAAACGGT, the switch fluorescence ratio was found to be 0.989.

Take GCAGGTATAG: the switch fluorescence ratio was determined as 1.02.

Take AGCCAACTAG: the switch fluorescence ratio stood at 1.03.

As to CTTGAATGGA, the switch fluorescence ratio was 0.984.

Regarding ATTACTTGTC, the switch fluorescence ratio was determined as 0.821.

GTTGCCATTT: the switch fluorescence ratio is 1.

Regarding AAGCTATACA, the switch fluorescence ratio was 1.37.

Regarding CAGGAATAAT, the switch fluorescence ratio stood at 1.03.

As to GGGCCTATAC, the switch fluorescence ratio came to 1.55.

On to GTATAAGGCA, for which the switch fluorescence ratio was 0.995.

As for ACAAGGAAAG, the switch fluorescence ratio was found to be 0.966.

Regarding GACAGGAGAT, the switch fluorescence ratio is 0.988.

Take GATACAGATG: the switch fluorescence ratio amounted to 1.03.

For CGTTACTCGC, the switch fluorescence ratio was 1.2.

On to CAACATTAGA, for which the switch fluorescence ratio is 1.02.

For CATTCTCACT, the switch fluorescence ratio worked out at 0.99.

CGCGGCAGTC: the switch fluorescence ratio worked out at 1.11.

Take CAAATCCATA: the switch fluorescence ratio came to 0.995.

Regarding AGTCACCTTT, the switch fluorescence ratio is 0.982.

Consider CTCATATAAG, for which the switch fluorescence ratio came out at 0.991.

Regarding GTTGGGAATC, the switch fluorescence ratio amounted to 0.998.

In the case of ACTATGCAG, the switch fluorescence ratio is 1.05.

Regarding GCGAGGTTCG, the switch fluorescence ratio came out at 0.974.

For GGGATGCACA, the switch fluorescence ratio was 0.989.

In the case of TTGTTGAGT, the switch fluorescence ratio worked out at 0.986.

For the sequence ATTAGTAATC, the switch fluorescence ratio was found to be 1.1.

TGAAATTTCC: the switch fluorescence ratio amounted to 2.6.

Take TTTAACCGGG: the switch fluorescence ratio is 0.985.

ACTGTTCGTA: the switch fluorescence ratio was 0.974.

With CAAATTAATT, the switch fluorescence ratio stood at 1.01.

As for CGATAGACT, the switch fluorescence ratio turned out to be 1.03.

With CCACAAATGG, the switch fluorescence ratio was determined as 1.1.

As to ACTGGGCGAC, the switch fluorescence ratio came to 1.01.

As to TAATTTTTCA, the switch fluorescence ratio was determined as 0.997.

Consider TGTTGGACCC, for which the switch fluorescence ratio was 0.999.

For the sequence GCGAGTTTA, the switch fluorescence ratio is 1.01.

Regarding TATTGATCGC, the switch fluorescence ratio came to 0.968.

On to TCACTTCTGG, for which the switch fluorescence ratio is 0.984.

For TGACGGAGCT, the switch fluorescence ratio was found to be 2.4.

On to TTCGACTGAG, for which the switch fluorescence ratio amounted to 1.03.

For the sequence AGCTCACTCT, the switch fluorescence ratio came to 0.982.

Take AAAGCTCGGA: the switch fluorescence ratio is 1.01.

On to CAGCTAGCTG, for which the switch fluorescence ratio was determined as 0.998.

Consider TCGATACGTG, for which the switch fluorescence ratio is 1.02.

For AGATTACGCT, the switch fluorescence ratio was determined as 1.

Turning to ATATTGTATT, the switch fluorescence ratio was determined as 1.05.

As to TACGGTCGCA, the switch fluorescence ratio worked out at 1.07.

With ACGCATTGAC, the switch fluorescence ratio was 4.34.

As for TGCATGCACA, the switch fluorescence ratio stood at 0.991.

TCGGTCTCAT: the switch fluorescence ratio stood at 0.987.

On to CGGGGATGAG, for which the switch fluorescence ratio turned out to be 0.963.

As for TGGGGAACGT, the switch fluorescence ratio worked out at 0.993.

Take TCCTGGGGTG: the switch fluorescence ratio is 1.53.

Consider CGGGCGAGGT, for which the switch fluorescence ratio amounted to 1.04.

Consider GTTTCTAGTG, for which the switch fluorescence ratio came to 0.957.

As to GTTGCGTCTC, the switch fluorescence ratio came to 0.963.

As to AATAATGGCG, the switch fluorescence ratio came to 0.915.

For ATCTACAGCG, the switch fluorescence ratio is 1.03.

Regarding CATCAAAAGA, the switch fluorescence ratio worked out at 1.02.

With CAGTGAACTT, the switch fluorescence ratio stood at 1.03.

For the sequence CTGTCAGGTC, the switch fluorescence ratio was determined as 1.02.

In the case of GATCTAGGTT, the switch fluorescence ratio was found to be 0.998.

As to ATTTTGGACA, the switch fluorescence ratio was found to be 1.03.

Source of the values: the supplement of paper PMC10126150.
